# Source: PubChem BioAssay AID463173 (ICCB-Longwood Screening Facility, Harvard Medical School, 2010)
# Out of some 52,000 compounds screened, about 4,300 (8.3%) were called active. Cut-off read from the data, not from the text of the source: active = survival mostly below about 52% (no sharp cut-off); inactive = mostly above about 56%. The list shows a part of the results.
# System: DeltatarO mutant
# Assay: growth inhibition of S. aureus wild type versus tarO mutant, primary screen, teichoic acid synthesis inhibitors, RN4220, OD600 (AID 463173)
# Conditions: OD600, 18 h, hits give low values, screened at 18.75 µg/mL (by protocol)
row,SMILES,survival
1,Cc1ccc(Nc2c(-c3c[nH]c4ccccc34)nc3ccccn23)cc1,inactive: 114%
2,Cc1ccc2oc(=O)c3cnn(CC(=O)N4CCN(c5ccc(F)cc5)CC4)c3c2c1,inactive: 106%
3,CC(C)Oc1ccccc1-c1nc(SCC(=O)c2ccc(F)cc2)n[nH]1,active: 40%
4,Cc1ccc(CNC(=O)CSc2nc3c(sc4ccccc43)c(=O)n2CCCOC(C)C)cc1,inactive: 122%
5,COc1ccc(OC)c(CCNC(=O)c2cc3c(s2)-c2c(C)cccc2OC3)c1,inactive: 79%
6,Cc1ccc(-n2c(=O)c3sc4ccccc4c3n(CC(=O)NC3CCCC3)c2=O)cc1C,inactive: 69%
7,Cc1ccc(NC(=O)Cn2c(=O)n(Cc3ccccc3)c(=O)c3sc4ccccc4c32)cc1,inactive: 68%
8,Fc1ccc(C(c2nnc(-c3ccccc3)o2)N2CCN(c3cccc(Cl)c3)CC2)cc1 (centres undefined),inactive: 91%
9,CCc1ccccc1NC(=O)CSc1nncn2c1cc1oc(C)cc12,inactive: 62%
10,COc1ccc(CN2C(=O)C(NC(=O)c3cccc(C)c3)(C(F)(F)F)N=C2c2ccccc2)cc1 (centres undefined),inactive: 74%
11,CCOc1ccc(NC(=O)CSc2cn(CCNC(=O)c3ccccc3F)c3ccccc23)cc1,inactive: 71%
12,Cn1c2ccccc2c2cnn(CC(=O)NCCCN3CCCCC3)c(=O)c21,inactive: 92%
13,CCOC(=O)C(CC)n1nnc2sc(-c3ccccc3)cc2c1=O (centres undefined),inactive: 62%
14,CC(=O)N1c2ccccc2Sc2ccccc21,inactive: 102%
15,CC(=O)c1cccc(NC(=O)CSc2nnc3ccc(-c4ccc(Br)cc4)nn23)c1,inactive: 75%
16,O=C(NCCS(=O)(=O)N1CCN(c2ccc(F)cc2)CC1)C(c1ccccc1)c1ccccc1,inactive: 113%
17,COC(=O)c1ccc(NC(=O)CSc2nc3cc4c(cc3cc2C#N)OCCO4)cc1,inactive: 87%
18,Cc1ccc(S(=O)(=O)NCC2CCCO2)cc1 (centres undefined),inactive: 69%
19,Cc1ccc(-n2ncc(C(=O)N3CCN(c4cc(Cl)ccc4C)CC3)c2C2CCN(C(=O)OC(C)(C)C)CC2)cc1,inactive: 100%
20,COC(=O)c1ccc(Cl)cc1NC(=O)Nc1nnc(N2CCCC2)s1,inactive: 93%
21,COc1ccc(CCNC(=O)c2ccc3c(c2)N(Cc2ccccc2)C(=O)c2ccccc2S3=O)cc1OC (centres undefined),inactive: 70%
22,Cc1ccc(C)c(Cn2c3ccccc3c3cnn(CC(=O)NC(C)CCc4ccccc4)c(=O)c32)c1 (centres undefined),inactive: 81%
23,CCS(=O)(=O)c1ncc(N(Cc2ccccc2)Cc2ccco2)c(C(=O)Nc2cccc(Cl)c2C)n1,inactive: 60%

row,SMILES,survival
1,COc1ccccc1C(=O)Nc1ccc2nc(SCC(=O)N(C)c3ccccc3)sc2c1,inactive: 74%
2,CCOc1ccc(NC(=O)C(Cc2ccccc2)NS(=O)(=O)c2ccc3c(c2)oc(=O)n3C)cc1 (centres undefined),inactive: 92%
3,CC(=O)Nc1ccc(Cc2ccncc2)cc1,inactive: 87%
4,CCN(CC)S(=O)(=O)c1ccc(NC(=O)CN(c2ccccc2)S(=O)(=O)N(C)C)cc1,inactive: 69%
5,O=C(CN1C(=O)C2(SCC(=O)N2c2cccc(Cl)c2)c2ccccc21)NCCc1ccccc1 (centres undefined),inactive: 104%
6,CCOc1ccc(NC(=O)c2c(Nc3ccccc3C)sc(C(=O)c3ccccc3)c2N)cc1,inactive: 94%
7,CCOc1ccc(CNC(=O)c2ccc3c(c2)c(C)c(C)n3Cc2ccccc2)cc1OC,inactive: 96%
8,CC(NC(=O)c1ccc2c(c1)N(Cc1ccc(Cl)cc1)C(=O)CS2)c1ccccc1 (centres undefined),active: 48%
9,CCN(c1cccc(C)c1)S(=O)(=O)c1cc(Br)cc2c1N(C(C)=O)C(C)C2 (centres undefined),active: 51%
10,COc1ccc2c(c1)c1c(c(=O)n(-c3ccccc3C)c(=O)n1Cc1cccc(C(F)(F)F)c1)n2C,inactive: 94%
11,CC(C)OC(=O)c1ccc(Cn2nnc3sc4c(c3c2=O)CCCC4)cc1,active: 20%
12,CCc1ccc(-n2nnc(-c3nc(-c4cccs4)no3)c2N)cc1,inactive: 66%
13,CC1CCN(C(=O)CSc2n[nH]c(-c3ccc(F)cc3)n2)CC1,inactive: 92%
14,CCCN(c1c(C)n(C)n(-c2ccccc2)c1=O)S(=O)(=O)c1ccc(C)cc1,inactive: 63%
15,COc1ccc(CNc2ncnc3c2nc2n3CCCC2)cc1,inactive: 120%
16,COc1ccc(CCn2c3c(c(=O)[nH]c2=O)C(NC(=O)c2ccc(Cl)cc2)(C(F)(F)F)C(=O)N3)cc1OC (centres undefined),inactive: 86%
17,C/C(COc1ccccc1OCC(=O)O)=N\NC(=O)c1ccncc1,inactive: 65%
18,O=C(Nn1c(Cc2ccccc2)nc2ccccc2c1=O)c1ccco1,inactive: 98%
19,Cc1cccc(OCC(=O)Nc2ccccc2C(=O)OCc2cc(=O)n3ccsc3n2)c1,inactive: 77%
20,COc1ccc(NC(=O)c2c(C)oc3ccc(O)c(CN4CCC(C)CC4)c23)cc1Cl,active: 55%
21,Cc1cccc(CNC(=O)Cn2c(-c3cccs3)cc3ccccc32)c1,inactive: 116%
22,Cn1ncc2c(Nc3cc(C(F)(F)F)ccc3Cl)ncnc21,inactive: 91%
23,COc1cccc(NC(=O)CN2C(=O)c3cccc4cccc2c34)c1,inactive: 80%

row,SMILES,survival
1,O=C(c1ccc(F)cc1)c1cn(Cc2ccccc2F)c2cc3c(cc2c1=O)OCCO3,inactive: 83%
2,Cc1cccc(-c2nc(CN3CCCC(C(=O)N4CCN(c5cc(Cl)ccc5C)CC4)C3)c(C)o2)c1 (centres undefined),inactive: 68%
3,Cc1ccc(C(=O)C(C)OC(=O)C2CC(=O)N(C3CCCCC3)C2)cc1 (centres undefined),inactive: 98%
4,Oc1ccc(Cl)cc1C1=Nc2ccccc2N=C(c2ccccc2)C1,inactive: 132%
5,Cc1ccc(CSc2nc3cccnc3n2Cc2ccc(C(=O)NCc3ccco3)cc2)cc1,inactive: 83%
6,CCc1nc2ccc(C(=O)N3CCN(c4cc(Cl)ccc4C)CC3)cc2nc1CC,inactive: 75%
7,CC(C)OC(=O)Cn1nnc(-c2ccccc2)n1,inactive: 82%
8,Cc1ccc(S(=O)(=O)NCC2CCC(C(=O)NCCc3ccccc3)CC2)cc1 (centres undefined),inactive: 81%
9,Nc1nonc1/C(=N/OC(=O)c1ccccc1)N1CCOCC1,inactive: 109%
10,CC1=CS(=O)(=O)CC1,inactive: 74%
11,CCOC(=O)c1cnc2cc(C(F)(F)F)ccc2c1Nc1ccc(F)cc1F,active: 2%
12,CC(=O)Nc1ccc(S(=O)(=O)NC2(C(F)(F)F)C(=O)Nc3c2c(=O)[nH]c(=O)n3-c2cccc(Cl)c2)cc1 (centres undefined),inactive: 84%
13,CCC(=O)N1CCc2cc(CNS(=O)(=O)c3cc(OC)ccc3OC)ccc21,inactive: 135%
14,Cc1ccc(C)c(NC(=O)C(=O)NCCCN2CCOCC2)c1,inactive: 53%
15,Cc1onc(-c2ccccc2Cl)c1C(=O)Oc1ccc(Cl)cc1Cl,inactive: 87%
16,CCOc1ccccc1NC(=O)COC(=O)CC(C)(C)CC1=NS(=O)(=O)c2ccccc2N1,inactive: 79%
17,CCOc1ccc(-n2ccnc2SCC(=O)Nc2cc(C)ccc2C)cc1,inactive: 80%
18,O=C(C1CCC1)N1CCCc2cc(S(=O)(=O)N3CCN(c4cccc(Cl)c4)CC3)ccc21,inactive: 67%
19,COc1cccc(-n2c(SCc3cccc(C)c3)nc3c([nH]c4ccccc43)c2=O)c1,inactive: 75%
20,CCOCc1cc(CN2CCN(c3cccc(C(F)(F)F)c3)CC2)c(O)c2ncccc12,inactive: 62%
21,CC1(C)CC(=O)C2=C(C1)OC(N)=C(C#N)C2c1cn(Cc2cccc(F)c2)c2ccccc12 (centres undefined),inactive: 92%
22,COc1ccc(N(C(=O)c2ccccc2C)S(=O)(=O)c2ccc(Cl)cc2)cc1,inactive: 140%
23,Nc1ncc(S(=O)(=O)NCc2ccccc2)cn1,inactive: 70%

row,SMILES,survival
1,CN1C(C(=O)Nc2cccc(O)c2)=CC(c2cccs2)=NS1(=O)=O,inactive: 87%
2,COc1ccc(C(=O)c2cn(Cc3ccccc3)c3ccccc3c2=O)cc1OC,inactive: 82%
3,O=C(NCCc1nc2ccccc2n1Cc1ccccc1F)c1ccc(F)cc1,inactive: 81%
4,CC(C)(C)C(=O)CNS(=O)(=O)c1ccc(S(=O)(=O)NC2CCCCC2)cc1,inactive: 79%
5,O=C(NCCCN1CCN(c2ccccc2)CC1)c1sc2ncccc2c1-n1cccc1,inactive: 91%
6,CCOc1ccc(CCNC(=O)c2cnc3c(-c4ccc(F)cc4)c(C)nn3c2C)cc1,inactive: 88%
7,COc1cn(CC(=O)Nc2cc(C)cc(C)c2)c(CN2CCCCC2)cc1=O,inactive: 91%
8,CCC(C)S(=O)(=O)c1oc(-c2cccs2)nc1S(=O)(=O)c1ccccc1 (centres undefined),inactive: 53%
9,CCOc1ccccc1CNCc1c(C(=O)O)c(C)n(Cc2ccc(C)cc2)c1C,inactive: 92%
10,CN1CCc2nc3sc(C(=O)c4ccc(F)cc4)c(N)c3cc2C1,inactive: 71%
11,COc1cccc(-c2nnc(SCC(=O)N(C)C3CCCCC3)o2)c1,inactive: 72%
12,CN1C(=O)c2cccc3c(S(=O)(=O)Nc4cccc(C(=O)O)c4)ccc1c23,inactive: 74%
13,CCCNC(=O)c1ccc(SC)cc1OC,inactive: 98%
14,CCOc1ccc(NC(=O)CN(Cc2ccccc2)S(=O)(=O)c2ccc3nc(C)sc3c2)cc1,inactive: 87%
15,CCOc1ccc(CCNC(=O)Cn2c(-c3cccs3)cc3ccccc32)cc1,inactive: 85%
16,COc1ccc(CN2C3CCCC2CC(NC(=O)NC2CCCCC2)C3)cc1 (centres undefined),inactive: 85%
17,O=C(Nc1cc(Cl)cc(Cl)c1)c1cc(S(=O)(=O)NC2CCCC2)ccc1F,inactive: 94%
18,COc1ccc(CN(C)c2ccc(-c3nc(-c4ccc(OC)c(OC)c4)no3)cc2[N+](=O)[O-])cc1,inactive: 62%
19,Cc1cccc(N2CCN(C(=O)C3CCN(C(=O)c4cc5sccc5n4C)CC3)CC2C)c1 (centres undefined),inactive: 64%
20,Cc1c(Cl)cccc1NC(=O)CCS(=O)(=O)c1ccc2c(c1)CC(C)N2C(=O)C1CC1 (centres undefined),inactive: 89%
